# Test results reported in the supplement of paper PMC8728848.
# Some of the results follow.
# B1: LSL-150 (Laetiporus sulphureus), Q7Z8V1 (protein)
# chain: MTDIYIPPEGLYFRLLGFASRQVIFARNSPSPDVGLSPVNDQATDQYFSLIYGTGEHAGLYAIKSKATGKVLFSRRPAEPYVGQIDGDGRYPDNWFKIEPGKTYLSKYFRLVQPSTGTALVSRTHLQPYFWNHPQTEVFDDQYFTFLFEDHHHHHH
# Tests used:
# Experiment in all cases: glycan array binding signal (z-score within array); higher = stronger binding
# Details in all cases: glycan notation: IUPAC condensed, linker removed
# Gal(a1-6)Glc = molecular target: Gal(a1-6)Glc
# Summary of the method: (§1)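 The binding signal is a Z-score computed within each array. Data were drawn from 3228 arrays in the Consortium for Functional Glycomics database, restricted to those with a known protein sequence. Scores were averaged over arrays of the same protein sequence at different concentrations or buffers, and over linkers, and negative values can be taken as non-binding.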
# Gal(b1-2)Gal = molecular target: Gal(b1-2)Gal
# Summary of the method: as §1
# Gal(b1-3)Gal = molecular target: Gal(b1-3)Gal
# Summary of the method: as §1
# Gal(b1-3)Gal(b1-4)GlcNAc = molecular target: Gal(b1-3)Gal(b1-4)GlcNAc
# Summary of the method: as §1
# Gal(b1-3)GalNAc = molecular target: Gal(b1-3)GalNAc
# Summary of the method: as §1
# [1] = molecular target: Gal(b1-3)GalNAc(a1-3)[Fuc(a1-2)]Gal(b1-4)Glc
# Summary of the method: as §1
# [2] = molecular target: Gal(b1-3)GalNAc(a1-3)[Fuc(a1-2)]Gal(b1-4)GlcNAc
# Summary of the method: as §1
# Gal(b1-3)GalNAc(b1-3)Gal = molecular target: Gal(b1-3)GalNAc(b1-3)Gal
# Summary of the method: as §1
# [3] = molecular target: Gal(b1-3)GalNAc(b1-3)Gal(a1-4)Gal(b1-4)Glc
# Summary of the method: as §1
# [4] = molecular target: Gal(b1-3)GalNAc(b1-4)Gal(b1-4)Glc
# Summary of the method: as §1
# [5] = molecular target: Gal(b1-3)GalNAc(b1-4)[Neu5Ac(a2-3)]Gal(b1-4)Glc
# Summary of the method: as §1
# Gal(b1-3)GlcNAc = molecular target: Gal(b1-3)GlcNAc
# Summary of the method: as §1
# [6] = molecular target: Gal(b1-3)GlcNAc(a1-3)Gal(b1-4)GlcNAc
# Summary of the method: as §1
# [7] = molecular target: Gal(b1-3)GlcNAc(a1-6)Gal(b1-4)GlcNAc
# Summary of the method: as §1
# Gal(b1-3)GlcNAc(b1-2)Man = molecular target: Gal(b1-3)GlcNAc(b1-2)Man
# Summary of the method: as §1
# [8] = molecular target: Gal(b1-3)GlcNAc(b1-2)Man(a1-3)[Gal(b1-3)GlcNAc(b1-2)Man(a1-6)]Man(b1-4)GlcNAc(b1-4)GlcNAc
# Summary of the method: as §1
# [9] = molecular target: Gal(b1-3)GlcNAc(b1-2)Man(a1-3)[Gal(b1-3)GlcNAc(b1-2)Man(a1-6)]Man(b1-4)GlcNAc(b1-4)[Fuc(a1-6)]GlcNAc
# Summary of the method: as §1
# [10] = molecular target: Gal(b1-3)GlcNAc(b1-2)Man(a1-3)[GlcNAc(b1-4)][Gal(b1-3)GlcNAc(b1-2)Man(a1-6)]Man(b1-4)GlcNAc(b1-4)GlcNAc
# Summary of the method: as §1
# [11] = molecular target: Gal(b1-3)GlcNAc(b1-2)[Gal(b1-3)GlcNAc(b1-6)]Man(a1-6)[Gal(b1-3)GlcNAc(b1-2)Man(a1-3)]Man(b1-4)GlcNAc(b1-4)GlcNAc
# Summary of the method: as §1
# [12] = molecular target: Gal(b1-3)GlcNAc(b1-3)Gal(b1-3)GlcNAc
# Summary of the method: as §1
# [13] = molecular target: Gal(b1-3)GlcNAc(b1-3)Gal(b1-4)Glc
# Summary of the method: as §1
# [14] = molecular target: Gal(b1-3)GlcNAc(b1-3)Gal(b1-4)GlcNAc
# Summary of the method: as §1
# [15] = molecular target: Gal(b1-3)GlcNAc(b1-3)Gal(b1-4)GlcNAc(b1-2)Man(a1-3)[Gal(b1-3)GlcNAc(b1-3)Gal(b1-4)GlcNAc(b1-2)Man(a1-6)]Man(b1-4)GlcNAc(b1-4)GlcNAc
# Summary of the method: as §1
# [16] = molecular target: Gal(b1-3)GlcNAc(b1-3)Gal(b1-4)GlcNAc(b1-2)[Gal(b1-3)GlcNAc(b1-3)Gal(b1-4)GlcNAc(b1-6)]Man(a1-6)[Gal(b1-3)GlcNAc(b1-3)Gal(b1-4)GlcNAc(b1-2)Man(a1-3)]Man(b1-4)GlcNAc(b1-4)[Fuc(a1-6)]GlcNAc
# Summary of the method: as §1
# [17] = molecular target: Gal(b1-3)GlcNAc(b1-3)Gal(b1-4)GlcNAc(b1-3)Gal(b1-4)GlcNAc(b1-2)[Gal(b1-3)GlcNAc(b1-3)Gal(b1-4)GlcNAc(b1-3)Gal(b1-4)GlcNAc(b1-6)]Man(a1-6)[Gal(b1-3)GlcNAc(b1-3)Gal(b1-4)GlcNAc(b1-3)Gal(b1-4)GlcNAc(b1-2)Man(a1-3)]Man(b1-4)GlcNAc(b1-4)[Fuc(a1-6)]GlcNAc
# Summary of the method: as §1
# [18] = molecular target: Gal(b1-3)GlcNAc(b1-3)Gal(b1-4)GlcNAc(b1-6)[Gal(b1-3)GlcNAc(b1-3)]Gal(b1-4)Glc
# Summary of the method: as §1
# [19] = molecular target: Gal(b1-3)GlcNAc(b1-3)Gal(b1-4)[Fuc(a1-3)]GlcNAc
# Summary of the method: as §1
# [20] = molecular target: Gal(b1-3)GlcNAc(b1-3)Gal(b1-4)[Fuc(a1-3)]GlcNAc(b1-6)[Gal(b1-3)GlcNAc(b1-3)]Gal(b1-4)Glc
# Summary of the method: as §1
# [21] = molecular target: Gal(b1-3)GlcNAc(b1-3)GalNAc
# Summary of the method: as §1
# [22] = molecular target: Gal(b1-3)GlcNAc(b1-6)Gal(b1-4)GlcNAc
# Summary of the method: as §1
# [23] = molecular target: Gal(b1-3)GlcNAc(b1-6)GalNAc
# Summary of the method: as §1
# [24] = molecular target: Gal(b1-3)GlcNAc(b1-6)[Gal(b1-3)]GalNAc
# Summary of the method: as §1
# Gal(b1-3)GlcNAc6S = molecular target: Gal(b1-3)GlcNAc6S
# Summary of the method: as §1
# [25] = molecular target: Gal(b1-3)[Fuc(a1-4)]GlcNAc
# Summary of the method: as §1
# [26] = molecular target: Gal(b1-3)[Fuc(a1-4)]GlcNAc(b1-2)Man
# Summary of the method: as §1
# [27] = molecular target: Gal(b1-3)[Fuc(a1-4)]GlcNAc(b1-2)Man(a1-3)[Gal(b1-3)[Fuc(a1-4)]GlcNAc(b1-2)Man(a1-6)]Man(b1-4)GlcNAc(b1-4)[Fuc(a1-6)]GlcNAc
# Summary of the method: as §1
# [28] = molecular target: Gal(b1-3)[Fuc(a1-4)]GlcNAc(b1-3)Gal(b1-3)[Fuc(a1-4)]GlcNAc
# Summary of the method: as §1
# [29] = molecular target: Gal(b1-3)[Fuc(a1-4)]GlcNAc(b1-3)Gal(b1-4)[Fuc(a1-3)]GlcNAc
# Summary of the method: as §1
# [30] = molecular target: Gal(b1-3)[Fuc(a1-4)]GlcNAc(b1-6)GalNAc
# Summary of the method: as §1
# [31] = molecular target: Gal(b1-3)[GlcNAc(b1-6)]GalNAc
# Summary of the method: as §1
# [32] = molecular target: Gal(b1-3)[Neu5Ac(a2-6)]GalNAc
# Summary of the method: as §1
# [33] = molecular target: Gal(b1-3)[Neu5Ac(a2-6)]GlcNAc(b1-4)Gal(b1-4)Glc
# Summary of the method: as §1
# [34] = molecular target: Gal(b1-3)[Neu5Ac(b2-6)]GalNAc
# Summary of the method: as §1
# Gal(b1-4)Gal = molecular target: Gal(b1-4)Gal
# Summary of the method: as §1
# [35] = molecular target: Gal(b1-4)GalNAc(a1-3)[Fuc(a1-2)]Gal(b1-4)GlcNAc
# Summary of the method: as §1
binder,measurement,setting,value
B1,glycan array binding signal (z-score),Gal(a1-6)Glc,-0.202
same,glycan array binding signal (z-score),Gal(b1-2)Gal,-0.204
same,glycan array binding signal (z-score),Gal(b1-3)Gal,-0.208
same,glycan array binding signal (z-score),Gal(b1-3)Gal(b1-4)GlcNAc,-0.195
same,glycan array binding signal (z-score),Gal(b1-3)GalNAc,-0.205
same,glycan array binding signal (z-score),[1],-0.207
same,glycan array binding signal (z-score),[2],-0.212
same,glycan array binding signal (z-score),Gal(b1-3)GalNAc(b1-3)Gal,-0.21
same,glycan array binding signal (z-score),[3],-0.199
same,glycan array binding signal (z-score),[4],-0.208
same,glycan array binding signal (z-score),[5],-0.203
same,glycan array binding signal (z-score),Gal(b1-3)GlcNAc,-0.205
same,glycan array binding signal (z-score),[6],-0.178
same,glycan array binding signal (z-score),[7],-0.203
same,glycan array binding signal (z-score),Gal(b1-3)GlcNAc(b1-2)Man,-0.208
same,glycan array binding signal (z-score),[8],-0.199
same,glycan array binding signal (z-score),[9],-0.209
same,glycan array binding signal (z-score),[10],-0.205
same,glycan array binding signal (z-score),[11],-0.203
same,glycan array binding signal (z-score),[12],-0.203
same,glycan array binding signal (z-score),[13],-0.197
same,glycan array binding signal (z-score),[14],-0.124
same,glycan array binding signal (z-score),[15],0.005
same,glycan array binding signal (z-score),[16],-0.046
same,glycan array binding signal (z-score),[17],1.4
same,glycan array binding signal (z-score),[18],-0.029
same,glycan array binding signal (z-score),[19],-0.207
same,glycan array binding signal (z-score),[20],-0.209
same,glycan array binding signal (z-score),[21],-0.209
same,glycan array binding signal (z-score),[22],-0.205
same,glycan array binding signal (z-score),[23],-0.21
same,glycan array binding signal (z-score),[24],-0.204
same,glycan array binding signal (z-score),Gal(b1-3)GlcNAc6S,-0.212
same,glycan array binding signal (z-score),[25],-0.208
same,glycan array binding signal (z-score),[26],-0.208
same,glycan array binding signal (z-score),[27],-0.209
same,glycan array binding signal (z-score),[28],-0.208
same,glycan array binding signal (z-score),[29],-0.202
same,glycan array binding signal (z-score),[30],-0.21
same,glycan array binding signal (z-score),[31],-0.194
same,glycan array binding signal (z-score),[32],-0.21
same,glycan array binding signal (z-score),[33],-0.215
same,glycan array binding signal (z-score),[34],-0.203
same,glycan array binding signal (z-score),Gal(b1-4)Gal,-0.2
same,glycan array binding signal (z-score),[35],-0.214
